Results taken from article PMC4336329 (PLoS ONE, 2015).
The campaign covered roughly 310,000 compounds. About 2,200 (0.71%) showed an effect of 50% or more. Effects have a minus sign here. The list shows a part of the results.

Biological target: human ether-à-go-go-related gene (hERG) potassium channel (human, UniProt Q12809)
Test: primary screen, population patch clamp on CHO cells stably expressing hERG

Chain of human ether-à-go-go-related gene (hERG) potassium channel (Q12809 whole entry, looked up): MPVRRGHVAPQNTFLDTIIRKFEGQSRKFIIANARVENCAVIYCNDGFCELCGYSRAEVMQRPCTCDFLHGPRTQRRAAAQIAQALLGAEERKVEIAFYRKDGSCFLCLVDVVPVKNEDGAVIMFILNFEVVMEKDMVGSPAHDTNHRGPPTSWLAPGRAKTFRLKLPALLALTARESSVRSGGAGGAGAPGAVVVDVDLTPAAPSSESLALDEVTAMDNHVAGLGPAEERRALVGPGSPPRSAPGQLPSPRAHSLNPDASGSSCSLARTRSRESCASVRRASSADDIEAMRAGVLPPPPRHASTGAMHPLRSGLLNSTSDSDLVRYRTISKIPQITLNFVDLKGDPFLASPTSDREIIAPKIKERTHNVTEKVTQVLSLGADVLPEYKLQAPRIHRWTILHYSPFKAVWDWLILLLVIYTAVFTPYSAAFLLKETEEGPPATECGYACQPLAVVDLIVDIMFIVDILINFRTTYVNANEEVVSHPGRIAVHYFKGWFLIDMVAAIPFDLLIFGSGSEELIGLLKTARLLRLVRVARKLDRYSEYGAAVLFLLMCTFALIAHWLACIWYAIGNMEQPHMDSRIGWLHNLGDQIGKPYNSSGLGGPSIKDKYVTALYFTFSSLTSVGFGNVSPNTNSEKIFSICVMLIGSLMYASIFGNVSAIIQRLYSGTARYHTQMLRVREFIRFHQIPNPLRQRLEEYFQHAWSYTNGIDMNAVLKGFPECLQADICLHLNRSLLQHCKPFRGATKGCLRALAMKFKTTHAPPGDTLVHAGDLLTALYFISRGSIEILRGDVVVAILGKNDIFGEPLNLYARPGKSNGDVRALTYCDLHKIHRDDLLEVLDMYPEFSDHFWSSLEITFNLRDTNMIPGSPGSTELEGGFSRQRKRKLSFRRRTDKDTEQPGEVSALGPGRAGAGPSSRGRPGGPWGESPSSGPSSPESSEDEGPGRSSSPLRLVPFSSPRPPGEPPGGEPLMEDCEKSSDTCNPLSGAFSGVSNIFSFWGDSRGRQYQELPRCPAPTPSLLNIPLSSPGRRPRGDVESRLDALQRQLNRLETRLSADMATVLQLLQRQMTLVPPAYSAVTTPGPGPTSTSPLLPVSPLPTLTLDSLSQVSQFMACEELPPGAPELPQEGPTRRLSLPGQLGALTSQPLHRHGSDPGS

Point of comparison: `COc1cc(C2C(C(=O)c3ccc(C)o3)=C(O)C(=O)N2c2cc(C)on2)ccc1O` (centres unmarked), “hERG current change (%, negative = inhibition) at 1uM” value 13.5%. Against it:
- O=c1[nH]c(=O)n(Cc2ccccc2)c2nc(-c3cccs3)n(CCO)c12 — lower, 6.81%
- Cc1ccc(C(=O)NC(=S)Nc2ccc(N3CCOCC3)cc2)c(C)c1 — lower, 3.56%
- CC(=O)N(c1ccccc1C)C1CCCC1 — lower, 12%
- COc1cc(NC(=O)/C=C/c2ccccc2[N+](=O)[O-])cc(OC)c1 — lower, 10.6%
- CN(CC(=O)Nc1ccc(N2CCOCC2)cc1)C(=O)c1cc(F)c(F)cc1Cl — lower, -7.87%
- CCOc1ccccc1NC(=O)C1CCC(CNc2c(N3CCOCC3)c(=O)c2=O)CC1 (centres unmarked) — lower, 6.67%
- CN(Cc1cccs1)C(=O)COc1ccc(-c2nnco2)cc1 — higher, 18.5%
- CCc1ccc(OCCOCC(O)CNC(C)(C)C)cc1.Cl (centres unmarked) — lower, 3.37%
- Cc1cccc(C(=O)NCCNC(=O)c2ccco2)c1 — higher, 14.2%
- O=C(OCC(=O)N1CCc2ccccc21)c1ccccn1 — lower, 10.7%
- COc1cccc2c(C)c(C(=O)O)[nH]c12 — lower, 0.894%
- CC(c1ccccc1F)n1cc(C(=O)NCCc2ccco2)nn1 (centres unmarked) — lower, 8.31%
- O=C(Nc1ccccn1)c1ccc(Cl)s1 — lower, 2.93%
- CC(=O)C1C(c2ccc(F)c(F)c2)NC(=O)NC1(O)C(F)(F)F (centres unmarked) — lower, 11.4%
- O=C(COc1ccc(F)c(Cl)c1)c1ccc[nH]1 — lower, 6.57%
- N#CC1=C(N)Oc2n[nH]c(-c3ccccc3)c2C1c1cccnc1 (centres unmarked) — lower, 12.9%
- COc1cccc(N2CCN(c3ccc4nnc(CCC(=O)N5CCC(C)CC5)n4n3)CC2)c1 — lower, -21.1%
- CCN1C(=O)c2cccc3c(S(=O)(=O)NCc4ccccc4)ccc1c23 — lower, 5.16%
- CCn1c(SCC(=O)N(C)CC(=O)Nc2ccc(F)c(F)c2F)nnc1-c1ccco1 — higher, 13.9%
- COc1ccc(-n2c(C)c([N+](=O)[O-])c3ccc(O)c(CN(C)C)c32)cc1 — lower, -17.9%
- Cc1ccc(Sc2cc(C(F)(F)F)nc(N(C)C)n2)cc1 — lower, 6.22%
- CC(=O)Nc1ccc2c(c1)ncn2-c1ccc(C)cc1 — lower, 0.47%
- COCc1ccc(CN2CCC(Oc3ccc(C(=O)NCc4ccccn4)cc3)CC2)o1 — higher, 17.6%
- O=C(Cc1ccc(NC2=NC3CS(=O)(=O)CC3S2)cc1)NCc1ccccc1Cl (centres unmarked) — higher, 14.4%
- COc1ccc(C(=O)N/C(=C/c2cccnc2)C(=O)Nc2cccc(C(C)=O)c2)cc1OC — lower, 8.63%
- COc1ccc(-c2nc(NC(=O)c3[nH]c(C)c(C(C)=O)c3C)sc2C)cc1 — lower, 8%
- Cc1cc(Nc2ccccc2)nc(N)n1 — lower, 5.79%
- c1cncc(-c2nc(NCc3ccc4c(c3)OCO4)c3ccccc3n2)c1 — lower, 8.36%
- COc1cc(Cl)cc2c1Sc1ccccc1/C2=C/CCN(C)C.O=S(=O)(O)O — lower, 2.22%
- COc1ccc(NC(=O)Cn2c(=O)n(CCC(=O)NCC3CCCO3)c(=O)c3cc(OC)c(OC)cc32)cc1 (centres unmarked) — lower, 9.89%
- Cc1occc1C(=O)NNC(=O)c1nn(C)c(=O)c2ccccc12 — lower, 12.5%
- O=S(=O)(c1cccc2nonc12)N1CCN(c2ccc(F)cc2)CC1 — lower, 5.98%
- Cc1ccc(OCC(=O)Oc2cccc(C)c2)cc1 — higher, 20%
- Cn1cnnc1SCC(=O)Nc1ccc(Cl)cn1 — lower, 8.94%
- O=C1N(c2cccc(Cl)c2)C(c2cccnc2)N2CCCN12 (centres unmarked) — lower, 6.2%
- CCOc1cc(/C=C/C(=O)O)ccc1OCCOc1ccc(F)cc1 — lower, 6.66%
- Fc1ccc(NC(=S)N2N=CCC2c2ccccc2)cc1 (centres unmarked) — lower, -19.7%
- Cc1ccc(S(=O)(=O)N(C)C)cc1NC(=O)COC(=O)CSc1ccccc1 — higher, 16.9%
- COc1cccc(C(=O)Nc2ccc(C(=O)NCC(C)C)cc2)c1 — higher, 14.1%
- CCC(c1nc2ccccc2c(=O)n1CCN1CCOCC1)N1C(=O)c2ccccc2C1=O (centres unmarked) — lower, -3.14%
- CSc1ccc(/C=C(\NC(=O)c2ccco2)C(=O)N2CCCCC2)cc1 — lower, -1.75%
- COc1ccccc1-c1nnc(NC(=O)OCC(C)C)s1 — lower, 10.2%
- COC(=O)c1ccccc1S(=O)(=O)N1CCC(C(=O)N(C)CCOc2ccccc2)CC1 — higher, 22%
- CCCc1nc2scc(-c3ccc(C)cc3)c2c(=O)n1N — higher, 14.9%
- CCOCCOCN(C#N)c1nc(OC)nc(N(C)C)n1 — lower, 9.67%
- COc1ccc(O)c(C(=O)c2cc(C(=O)NCCc3ccccc3)c(=O)n(CCc3ccccc3)c2)c1 — lower, 6.92%
- O=C(Nc1ccc(N2CCOCC2)cc1)c1ccc(Cl)cc1N1CCCC1=O — lower, 3.25%
- O=C(N/C(=C\c1ccc(Br)cc1)C(=O)N1CCOCC1)c1ccccc1Cl — lower, 2.42%
- CCOC(=O)CN(C(=O)CNC(=O)c1ccco1)C(C(=O)NC1CCCCC1)c1cccc(OC)c1 (centres unmarked) — lower, 13%
- Cc1onc(-c2ccccc2)c1C(=O)N/N=C/c1cc2c(cc1Br)OCO2 — lower, 10.4%
- CCN(CC(=O)NCc1cccs1)S(=O)(=O)c1c(F)cccc1F — higher, 15.2%
- CCOc1ccc(N2CC(=O)N/C2=N\c2nc(C)cc(C)n2)cc1 — lower, -2.01%
- CCc1ccc(C(=O)N2CCC(c3nc4ccccc4s3)CC2)cc1 — lower, -27.1%
- COC(=O)NNC(=S)Nc1ccc(Br)cc1 — lower, -2.32%
- Cc1ccc2cc(CN(c3ccccc3)S(=O)(=O)c3ccccc3)c(=O)[nH]c2c1 — lower, 4.99%
- Cc1cc(NC(=S)N(Cc2ccc(Cl)cc2)Cc2ccc(C(=O)O)cc2)ccc1Cl — lower, 5.9%
- COc1ccc2c(c1OC)C(=O)NC(C)=C(C(=O)OC(C)(C)C)C2O (centres unmarked) — lower, 12.4%
- CC1=C(CC/C(C)=N/NC(N)=S)C(C)(C)CCC1 — lower, 1.1%
- NC(=O)C1(S(=O)(=O)c2ccccc2)CCCCC1 — higher, 14.2%
- Cc1noc(C)c1N=Nc1ccc(Br)cc1C(=O)O — lower, 13.3%
- CCc1nnc(NC(=O)c2ccc(N(C)S(=O)(=O)c3ccccc3)cc2)s1 — lower, 2.11%
- Cc1cc2c(c(=O)n1Cc1cccnc1)C(c1ccccc1)C(C#N)=C(N)O2 (centres unmarked) — higher, 16.5%
- CCOc1ccc(C(=O)NCCNC(=O)c2ccc(OCC)cc2)cc1 — higher, 15.9%
- O=C(N/N=C/c1c[nH]c2ccccc12)c1cc(-c2ccccc2)n[nH]1 — lower, 2.02%
- CCOC(=O)c1c(-c2ccccc2)oc2ccc(OCC(N)=O)cc12 — lower, 8.38%
- Cc1ccc(O)c(-c2cc(C(=O)Nc3cccnc3)[nH]n2)c1 — lower, 11%
- Cc1ccc(-n2c(SCC(=O)OC(C)C)nnc2-c2ccncc2)cc1 — lower, 0.506%
- CCc1ccc(-c2nnn(CCC(=O)OC)n2)cc1 — lower, -4.21%
- O=C(C1=C[C@H](c2ccc(C(F)(F)F)cc2)C[C@H](OCc2ccc(CO)cc2)O1)N1CCOCC1 — lower, 4.82%
- COc1ccc(C2(O)CCN(CC(=O)Nc3nc(-c4ccccc4)cs3)CC2)cc1 — lower, 4.82%
- Cc1nnc(NC(=O)c2ccc(-c3cccc(C(F)(F)F)c3)o2)s1 — lower, 4.49%
- Br.COc1ccc(-c2nc(C)sc2C)cc1 — lower, 7.72%
- O=C(Nc1sc2c(c1-c1nc3ccccc3[nH]1)CCCC2)C1CCCC1 — lower, 5.15%
- COc1ccc(Nc2nc(NN)nc(Nc3ccc(OC)cc3)n2)cc1 — lower, 10.9%
- CCCCCCCCC1=NCCc2c1[nH]c1ccccc21.Cl — lower, -11.1%
- CC1CCC(C(C)C)C(OCC(O)CN2CCOCC2)C1.Cl (centres unmarked) — lower, 12.8%
- O=C1c2ccccc2NC(c2ccc([N+](=O)[O-])cc2)N1O (centres unmarked) — lower, 11.1%
- CCn1cc([C@@H]2C[C@H]3CN(Cc4cccc(Cl)c4)C(=O)[C@]34CCCN24)c(C)n1 — lower, -18.7%
- CCOC(=O)c1ccc(NC(=O)Cn2nnc(-c3ccccc3F)n2)cc1 — lower, 12.2%
- CC1CCCC(C)N1C(=O)CSc1nnc(COc2ccc(F)cc2)o1 (centres unmarked) — lower, 9.68%
- CCn1c(SCC(=O)Nc2nc(C)c(C)s2)nc2cccnc21 — lower, 6.61%
- O=C(Cn1ncc2c(=O)oc3ccccc3c21)N1CCCc2ccccc21 — lower, -0.534%
- CCc1ccc(C(C(=O)NCc2ccccc2)N(C(=O)c2csnn2)C2CC2)cc1 (centres unmarked) — lower, -0.36%
- C=CCN(c1cccc(C(F)(F)F)c1)S(=O)(=O)c1cccc(C(=O)OCC(=O)NC(N)=O)c1 — lower, 8.38%
- CCOC(=O)c1cc(-c2ccccc2)sc1NC(=O)C(C)C — higher, 20.2%
- O=C(Nc1nc(-c2ccc(Cl)s2)cs1)c1ccccc1 — lower, -5.4%
- CCc1cccc2c(=O)c(C(=O)N3CCCCCC3)c[nH]c12 — lower, 3.56%
- CCOC(=O)c1c(C)[nH]c(C(=O)NNC(=O)c2ccccc2)c1C — lower, -4.25%
